Some of the results follow. Sequences were assembled here from the parent chain. Values near 0.05 are background.
B1: TEV protease; numbered along this chain (parent)
chain: MGESLFKGPRDYNPISSSICHLTNESDGHTTSLYGIGFGPFIITNKHLFRRNNGTLVVQSLHGVFKVKDTTTLQQHLVDGRDMIIIRMPKDFPPFPQKLKFREPQREERICLVTTNFQTKSMSSMVSDTSCTFPSGDGIFWKHWIQTKDGQCGSPLVSTRDGFIVGIHSASNFTNTNNYFTSVPKNFMELLTNQEAQQWVSGWRLNADSVLWGGHKVFMVKPEEPFQPVKEATQL

Variants of: B1
Assay: raw area under fraction-flipped curve 0-4 h after induction (AUC4h, not background-subtracted), DNA-recorder readout of cleavage of the substrate (dimensionless); higher = more cleavage of the substrate by the protease variant
Settings: temperature: 34 °C; time window: 0-4 h after rhamnose induction
Method: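 In vivo DNA recorder in E. coli TOP10(DE3) ΔrhaA at 34 °C. Each TEVp single-site mutant (parent TEVp 0) is paired with a single-site variant of the 7-mer TEVs (canonical ENLYFQ|S). The substrate sits between flexible linkers in a Bxb1-sfGFP-TEVs-SsrA fusion, so cleavage stabilises Bxb1 and speeds flipping of a recombination array, read by NGS. The value is the raw area under the fraction-flipped curve over 0-4 h after rhamnose induction (AUC4h), with ≥20 reads per time point. It is not background-subtracted; inactive controls average about 0.047.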
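Note: Bxb1 expression induced with 0.2% (w/v) L-rhamnose at OD600 near 0.5, cultures sampled hourly, flipped fraction per protease–substrate barcode pair counted by paired-end Illumina sequencing.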

Variant | area with substrate ENLYFQA | area with substrate ENLYFQC | area with substrate ENLYFQD | area with substrate ENLYFQF | area with substrate ENLYFQI | area with substrate ENLYFQK | area with substrate ENLYFQL | area with substrate ENLYFQM | area with substrate ENLYFQN | area with substrate ENLYFQQ | area with substrate ENLYFQR | area with substrate ENLYFQS | area with substrate ENLYFQT | area with substrate ENLYFQV | area with substrate ENLYFQW | area with substrate ENLYFQY | area with substrate ENLYFQP | area with substrate ENLYFQH | area with substrate ENLYFQE | area with substrate ENLYFQG
T72K | 0.126 | 0.0254 | 0.075 | 0.0693 | 0.0627 | 0.0736 | 0.0626 | 0.0897 | 0.0813 | 0.065 | 0.0526 | 0.106 | 0.0706 | 0.0777 | 0.0715 | 0.0791 |  |  |  | 
T72Q | 0.101 | 0.144 |  |  |  | 0.0628 | 0.0457 | 0.0905 | 0.0684 |  | 0.0543 | 0.104 |  | 0.0543 |  | 0.135 | 0.0817 |  |  | 
L73V | 0.101 | 0.107 |  | 0.0647 | 0.0595 | 0.0731 | 0.06 |  | 0.0768 | 0.0569 | 0.0675 | 0.0908 | 0.0609 | 0.0448 | 0.0648 | 0.0851 |  | 0.0725 |  | 
H76C | 0.121 | 0.127 |  | 0.0856 | 0.0583 | 0.0682 | 0.06 | 0.0905 | 0.0942 | 0.0728 | 0.0629 | 0.112 | 0.0704 | 0.0542 | 0.0709 | 0.0515 |  | 0.0735 |  | 
L77F | 0.064 | 0.0658 | 0.0582 |  | 0.0566 | 0.0628 | 0.0655 | 0.0585 | 0.0643 |  | 0.0521 | 0.0694 | 0.0552 | 0.0719 | 0.0607 | 0.066 | 0.056 | 0.0519 | 0.0819 | 0.0567
D79N | 0.0876 | 0.113 | 0.0749 | 0.0615 | 0.0568 |  | 0.0506 | 0.0827 | 0.0787 | 0.0762 | 0.0663 | 0.0911 | 0.0557 | 0.066 | 0.0665 | 0.0717 |  |  |  | 0.0821
G80A | 0.146 | 0.089 |  |  | 0.0708 |  |  | 0.1 | 0.0701 |  |  | 0.101 |  |  |  |  | 0.0945 |  |  | 
G80E | 0.0954 | 0.125 |  | 0.0661 | 0.0608 | 0.066 | 0.0617 | 0.114 |  | 0.076 |  | 0.126 | 0.0731 |  | 0.0789 |  | 0.0554 | 0.111 |  | 0.0739
G80I | 0.129 |  | 0.0738 |  | 0.0544 | 0.0728 | 0.0473 | 0.0844 | 0.0666 | 0.0785 |  | 0.114 |  | 0.0555 | 0.052 |  |  | 0.0771 |  | 0.126
G80M | 0.132 | 0.127 |  |  |  | 0.0675 | 0.0635 |  | 0.0925 |  | 0.0629 | 0.103 | 0.0505 | 0.028 |  | 0.0911 | 0.0733 | 0.0655 |  | 
G80V | 0.101 | 0.113 |  |  | 0.0576 | 0.0635 | 0.0592 | 0.111 | 0.0802 | 0.0641 |  | 0.109 | 0.0672 |  | 0.0699 | 0.0634 | 0.0519 |  |  | 0.067
G80W | 0.0916 | 0.109 |  | 0.0763 | 0.0525 | 0.0444 | 0.0591 | 0.0854 | 0.104 | 0.0631 | 0.0578 | 0.11 | 0.0639 |  |  | 0.0777 | 0.0596 |  |  | 0.118
R81H | 0.103 | 0.0965 | 0.0672 | 0.0653 | 0.0575 | 0.0599 | 0.0541 | 0.0737 |  |  | 0.0676 | 0.0909 | 0.0581 |  | 0.0632 |  |  | 0.0793 |  | 
M83F | 0.0737 | 0.0881 |  |  |  | 0.0511 | 0.0691 |  | 0.0746 | 0.0757 |  | 0.0797 |  |  |  | 0.056 | 0.0643 |  |  | 0.0777
M88F | 0.0858 | 0.0445 |  | 0.067 |  |  | 0.0474 | 0.0625 | 0.0647 | 0.047 | 0.0537 | 0.0795 |  | 0.07 |  |  |  | 0.0612 |  | 0.0934
M88R | 0.0483 | 0.0457 |  |  | 0.0558 |  | 0.0254 | 0.0515 | 0.0456 |  | 0.0371 | 0.0543 | 0.0552 | 0.042 |  | 0.0516 |  |  |  | 0.0435
M88T | 0.115 | 0.0937 |  | 0.0738 |  |  | 0.0674 | 0.0926 | 0.09 |  | 0.0497 | 0.093 |  |  | 0.0647 |  |  |  |  | 
M88V | 0.0952 | 0.0976 |  | 0.0675 | 0.0639 | 0.0723 | 0.0632 | 0.0797 | 0.0677 | 0.0796 | 0.0807 | 0.104 | 0.065 | 0.044 | 0.0669 | 0.0637 | 0.0452 | 0.0908 | 0.0491 | 0.103
F95Y | 0.102 | 0.111 |  |  |  | 0.0668 | 0.0403 | 0.0685 | 0.0785 |  |  | 0.0998 |  | 0.049 | 0.0587 |  |  | 0.0757 |  | 
P96A | 0.0837 | 0.173 | 0.0564 |  | 0.0519 | 0.0761 |  | 0.0489 |  | 0.0723 | 0.0264 | 0.107 | 0.0693 |  | 0.0625 |  |  |  |  | 
P96E | 0.0932 | 0.116 |  | 0.0564 |  | 0.0463 | 0.0591 | 0.0818 | 0.0896 |  | 0.0626 | 0.103 | 0.074 | 0.0588 | 0.0615 | 0.0649 | 0.0636 | 0.121 |  | 
P96H | 0.105 | 0.111 | 0.0754 | 0.0478 |  | 0.0541 | 0.0502 | 0.0812 | 0.0676 | 0.0749 | 0.0712 | 0.0982 | 0.0824 |  | 0.0737 | 0.0831 |  | 0.0773 |  | 0.123
P96W | 0.0966 |  | 0.0658 |  | 0.0578 |  | 0.0709 | 0.0771 |  |  | 0.0555 | 0.0893 |  |  |  |  |  |  |  | 0.0781
K98W | 0.107 | 0.0912 |  |  | 0.0573 | 0.0552 | 0.0667 |  | 0.108 |  | 0.0582 | 0.104 | 0.0634 | 0.0724 | 0.0685 | 0.0627 | 0.0692 |  |  | 
F101N | 0.0391 | 0.042 | 0.0581 |  | 0.043 |  | 0.035 |  | 0.0558 | 0.0498 | 0.0502 | 0.0481 | 0.0548 |  | 0.0508 | 0.0315 |  |  |  | 0.0653
R102G | 0.0524 | 0.0615 |  |  | 0.0585 | 0.0565 | 0.051 | 0.0566 | 0.0528 |  | 0.0544 | 0.0604 | 0.0449 | 0.0511 | 0.0448 | 0.0627 |  |  | 0.05 | 
